Assay results: PubChem BioAssay AID1159614 (National Center for Advancing Translational Sciences (NCATS), 2016)
About 65 (0.1%) of roughly 45,000 compounds were called active. Calls come from the whole dose curve; as a rule, active = well fitted activation curve with a large enough effect; inconclusive = small, poorly fitted or top-dose-only effect; inactive = no such curve, though single readings can be large or run the other way. Some of the results follow.

Target: Galactocerebrosidase (Homo sapiens) (UniProt P54803)
Assay: A Novel Cell-Based Assay to Identify Small Molecules for B -Galactocerebrosidase; note: 0% is about no effect; nearly all actives have a fitted effect of over 65% in size
Settings: 145M-Twi-hGALC-G270D cells (Twitcher mouse brain line with human GALC G270D), HMU-beta-Gal fluorescence, 48 h; series mostly up to 57.5 µM; activation: at the top concentration
Summary of the method: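 Brain-derived Twitcher mouse 145M-Twi cells stably expressing human GALC-G270D or wild-type GALC, treated live, then residual GALC activity read by fluorescence of HMU-b-Gal substrate (0.1 mM final) in citrate-phosphate buffer pH 5.2 with sodium taurocholate. Signal increase indicates enhancement.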

Chain of UniProt P54803 (P54803 whole entry, looked up): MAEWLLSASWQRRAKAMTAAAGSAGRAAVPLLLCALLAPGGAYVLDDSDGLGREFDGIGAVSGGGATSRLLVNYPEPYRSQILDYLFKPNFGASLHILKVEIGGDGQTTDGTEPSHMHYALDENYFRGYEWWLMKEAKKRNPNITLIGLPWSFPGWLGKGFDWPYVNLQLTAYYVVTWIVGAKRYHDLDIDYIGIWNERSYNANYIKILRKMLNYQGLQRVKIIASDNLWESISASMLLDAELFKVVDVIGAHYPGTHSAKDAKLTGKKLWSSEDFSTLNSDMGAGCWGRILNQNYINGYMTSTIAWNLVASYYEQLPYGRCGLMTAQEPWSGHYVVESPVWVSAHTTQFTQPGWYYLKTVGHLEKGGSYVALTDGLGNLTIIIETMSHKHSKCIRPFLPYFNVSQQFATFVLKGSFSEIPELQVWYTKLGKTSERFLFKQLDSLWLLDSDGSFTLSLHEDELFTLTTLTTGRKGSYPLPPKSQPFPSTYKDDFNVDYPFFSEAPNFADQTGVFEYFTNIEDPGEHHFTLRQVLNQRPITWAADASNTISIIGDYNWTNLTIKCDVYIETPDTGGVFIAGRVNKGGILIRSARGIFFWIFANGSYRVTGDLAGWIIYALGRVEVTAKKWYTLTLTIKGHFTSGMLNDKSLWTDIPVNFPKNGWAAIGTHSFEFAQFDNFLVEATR

activation, inactive:
Cc1ccc(CNC(=O)CCS(=O)(=O)c2cc3c(cc2Cl)NC(=O)CO3)cc1 -2.26%, CC(C)(C)C(=O)NC1(C(F)(F)F)NC(=O)N(c2ccc(F)cc2)C1=O (centres undefined) -6.74%, COc1ccc(N2CCN(c3ncnc4c3cnn4-c3ccc(C)c(Cl)c3)CC2)cc1 -18%, Cc1ccc(Cl)cc1N1CCN(C(=O)CN2C(=O)COc3ccc(S(=O)(=O)N4CCC(C)CC4)cc32)CC1 4.55%, CCOc1ccccc1CNS(=O)(=O)c1ccc2c(c1)C(C)(C)C(=O)N2C 7.97%, O=C(NCc1ccc(F)cc1)c1cc(Sc2ccc(F)cc2F)nc2ccccc12 -15.9%, Cc1c(C(=O)NCc2ccccc2Cl)sc2nc(-c3ccc(F)cc3)cn12 1.67%, CCC(=O)N1CCc2cc(S(=O)(=O)NC(C(=O)NCc3ccccc3Cl)C(C)C)ccc21 (centres undefined) -15.2%, COc1ccc(CNC(=O)c2ccc(-c3nc(CSc4ccc(C)cc4)c(C)o3)cc2)cc1OC -15.2%, Cc1nn(C(=O)c2ccccc2)c(C)c1S(=O)(=O)N1CCOCC1 7.21%, CCOC(=O)C1CCN(C(=O)Cn2c(-c3cccs3)cc3cc(Cl)ccc32)CC1 -8.24%, CCOC(=O)CN(Cc1ccccc1)C(C(=O)NC1CCCCC1)c1ccc(C)cc1 (centres undefined) -23.6%, COc1ccc(NC(=O)Cn2nc(SC)c(S(=O)(=O)c3ccc(C)cc3)c2N)cc1OC -1.01%, CCN(CC)CCCNC(=O)CSc1nc2nc(C)c(Cc3ccccc3C)c(C)n2n1 0.283%, COCCN(Cc1ccco1)C(=O)c1cc2c(Cl)nc3ccc(C)cc3c2s1 -3.99%, Fc1ccccc1N1CCN(c2ncnc3c2nc2n3CCCCC2)CC1 -10.6%, COc1ccc(CNc2nc3c(-c4ccc(C)cc4)nnn3c3ccccc23)cc1 -3.68%, CCC(=O)N1CCc2cc(Br)cc(S(=O)(=O)CCC(=O)N(C)c3cccc(C)c3)c21 -13.8%, CCOc1ccc(NC(=O)CC2C(=O)N(c3ccc(F)cc3)C(=O)N2CCc2sccc2C)cc1 (centres undefined) -15.4%, O=C(O)c1ccc2oc(=O)n(Cc3ccccc3)c2c1 -18%, O=C(Nc1c(Cl)cccc1Cl)c1cccc2c1C(=O)N(C1CCCCC1)C2 -18.8%, COc1ccc(-n2nc(C(=O)NCCCOC(C)C)c3c4ccccc4n(C)c3c2=O)cc1 -12%, CCOC(=O)c1cc2c(=O)n3ccccc3nc2n(CCCOC)c1=NC(=O)c1c(-c2ccccc2Cl)noc1C -8.05%, CCCS(=O)(=O)NCCc1csc2nc(-c3ccc(C)cc3)nn12 -4.39%, CN(C(=O)Cn1c(=O)n(CCC(=O)NCc2ccc3c(c2)OCO3)c(=O)c2sccc21)c1ccccc1 -6.98%, Cc1ccc(-n2ncc(C(=O)N3CCN(C4CCCCC4)CC3)c2C2CCN(C(=O)OC(C)(C)C)CC2)cc1C -6.72%, Cc1ccc(NC(=O)c2sc3nc4n(c(=O)c3c2C)CCCCC4)c(Br)c1 -6.16%, CCOc1ccc(NC(=O)C2CCCN(c3nn4cc(-c5ccc(OC)cc5)nc4s3)C2)cc1 (centres undefined) -13.4%, O=C(Cn1cnc(S(=O)(=O)N2CCCC2)c1)Nc1cccc(F)c1 -3.65%, Cc1ccccc1OCCCn1c(CCNC(=O)C2CCCCC2)nc2ccccc21 -21.4%, Cc1nc2nc(C)c(NS(=O)(=O)c3ccc(F)cc3)c(=O)n2[nH]1 -9.33%, Oc1c(C(c2ccccc2F)N2CCC3(CC2)OCCO3)sc2nc(-c3ccco3)nn12 (centres undefined) -13.5%, CC(=O)c1cccc(NC(=O)C2=CC(c3ccc(F)cc3)=NS(=O)(=O)N2C)c1 -7.6%, CCCCN(C(=O)Nc1ccc(Cl)cc1)C1CCN(C(C)=O)CC1 -8.3%, O=C1CC(c2nc3ccccc3n2CCC2CCCCC2)CN1c1ccccc1Cl (centres undefined) -12%, CCCCCCc1c(C)c2c(cc(C)c3c(C)c(C)oc32)oc1=O -6.84%, Cc1cccc(N2CCN(C(=O)CCCn3c(=O)[nH]c4ccsc4c3=O)CC2)c1C -7.99%, Cc1ccc(NC(=O)Cn2c(=O)n(CCCC(=O)NCc3ccc4c(c3)OCO4)c(=O)c3ccccc32)cc1 -1.86%, O=C(NC1CCCCC1)c1ccc(CSc2nc3ccncc3n2Cc2ccccc2)cc1 -2.55%, O=C(NCCc1ccccc1)c1ccc(Cn2c(=O)c3cccn3c3cccnc32)cc1 2.15%, COc1ccc(OC)c(CNC(=O)c2ccc(Sc3ccc(Cl)cc3)c(NC(C)=O)c2)c1 -35.9%, CCN(c1ccc(Cl)cc1)S(=O)(=O)c1nnc(NC(=O)c2ccco2)s1 -9.04%, Cc1ccc2onc(CC(=O)N3CCN(c4ccc(Cl)cc4)CC3)c2c1 -15%, O=C(NC(Cc1cc(=O)[nH]c2ccccc12)C(=O)O)c1ccc(Cl)cc1 (centres undefined) -26.2%, CCNS(=O)(=O)c1cc(-c2nnc(Nc3cccc(C(F)(F)F)c3)c3ccccc23)ccc1C -7.47%, COc1ccc(NC(=O)CN2C(=O)CSc3ccc(S(=O)(=O)N(C)C)cc32)cc1OC -16.1%, Cc1cc2c(cc1S(=O)(=O)N(CCO)Cc1ccccc1)OCC(=O)N2 -16%, CCOc1cc(C2C(C(=O)Nc3ccccc3)=C(C)Nc3ncnn32)cc(Br)c1O (centres undefined) -14.2%, Cn1c(=O)oc2cc(S(=O)(=O)N3CCCC(C(=O)N4CCN(c5ccc(Cl)cc5)CC4)C3)ccc21 (centres undefined) -6.46%, CCc1ccc2nc(N3CCN(C(=O)c4ccccc4)CC3)sc2c1 -15.4%, Cc1ccc(C)c(N2CCN(C(=O)C3CCN(S(=O)(=O)c4ccc5[nH]c(=O)oc5c4)CC3)CC2)c1 -14.3%, Cc1ccc(NC(=O)Cn2c(CCC(=O)O)ccc2-c2cccs2)cc1Cl -17.2%, Cc1ccc(C)c(NC(=O)CCS(=O)(=O)c2cccc3nsnc23)c1 -10.3%, CCc1cccc(CC)c1N(COC)C(=O)Cn1c(CC)nc2ccccc21 -11.4%, CCN(CC)S(=O)(=O)c1ccc2c(c1)c(=O)c(C(=O)NCCc1ccc(OC)c(OC)c1)cn2C -12.1%, CCC(=O)N1CCc2cc(Br)cc(S(=O)(=O)NCc3cccc(OC)c3)c21 -12.5%, Cc1nc2ccn(Cc3ccccc3)c(=O)c2cc1C(=O)Nc1ccc(F)cc1Cl -7.79%, COC(=O)CNC(c1ccccc1)c1cc(Br)ccc1NC(=O)c1ccc(Cl)cc1 (centres undefined) -20.1%, CCOC(=O)c1ccccc1NC(=O)c1c(-c2ccccc2)noc1C 1.06%, COc1cccc(CN(C(=O)c2oc3ccc(Br)cc3c2C)C2CCS(=O)(=O)C2)c1 (centres undefined) -7%, Cc1cc2nc(NC(=O)c3ccc(S(=O)(=O)N4CCOCC4)cc3)sc2cc1C 9.81%, COc1ccccc1-c1noc(-c2ccc(NCc3ccccc3)c([N+](=O)[O-])c2)n1 -1.68%, CCN(CC)C(=O)CSc1nc(-c2ccccc2)cc(-c2ccc(OC)cc2)c1C#N -9.55%, Cc1ccc(C)c(NC(=O)CCc2nc3cccnc3n2Cc2cccs2)c1 -7.35%, Cc1ccc(-c2cc(N)n(Cc3cccc(Cl)c3)n2)cc1 -11.7%, Cc1ccccc1-c1ccnc2c(-c3ccc(F)cc3)c(C)nn12 1.59%, COc1cccc(NC(=O)Cn2c(=O)n(-c3ccccc3)c(=O)c3c4c(sc32)CCCC4)c1 -1.73%, COc1ccc(N2Cc3cccc(C(=O)Nc4ccc(C)cc4)c3C2=O)cc1 -7.88%, CCOC(=O)c1sc2ccccc2c1S(=O)(=O)N1CCN(c2ccccc2F)CC1 -9.72%, COc1ccc(C)cc1NC(=O)CN1C(=O)CSc2ccc(S(=O)(=O)N3CCCC3)cc21 -5.89%, CC1=C(c2cccc(Cl)c2)S(=O)(=O)NC1=NCc1ccccc1C -7.04%, CCC(=O)N1CCc2cc(S(=O)(=O)N3CCN(c4ccccc4F)CC3)ccc21 -16.1%, COc1cc(OC)c(NC(=O)Cn2nc(C)n3cccc3c2=O)cc1Cl -10.2%, CCOc1ccc(NC(=O)Nc2cccc(C)n2)cc1 -13.9%, Cc1ccc(-n2nc3c(N4CCC(C(=O)NCCc5ccccc5)CC4)nnc(C)c3c2C)cc1 -1.86%, COCCCN1CN=C(NS(=O)(=O)c2ccc(NC(C)=O)cc2)NC1 -3.16%, COc1ccc(C)cc1NC(=O)CN(C)S(=O)(=O)c1ccc2c(c1)CCCN2C(C)=O -11.4%, Cc1ccccc1Cn1cnc2c(oc3ccccc32)c1=O 6.4%, CCC(=O)N1CCc2cc(CNC(=O)Cc3ccc(OC)c(OC)c3)ccc21 -14.1%, CC1=Nc2cc(C(=O)NC3CCC(C)CC3)ccc2Sc2c(C)ccc(C)c21 (centres undefined) -8.07%, COc1cc(C(=O)N2CCc3c([nH]c4ccccc34)C2c2ccc(F)cc2)cc(OC)c1OC (centres undefined) -4.85%, COC(=O)c1ccc(Nc2nc(-c3ccc(C)cc3)nc3ccccc23)cc1 -12.6%, COc1ccc(-c2cn3nc(N4CCC(C(=O)NCc5cccc(Cl)c5)CC4)sc3n2)cc1 -0.0882%, COc1cc(-c2noc(-c3ccc(N4CCCC4)c([N+](=O)[O-])c3)n2)cc(OC)c1OC -4.02%, CC(=O)N1CCc2c(sc3c2c(=O)n(Cc2ccccc2)c(=O)n3Cc2cccc(Cl)c2)C1 -16.8%, Cc1ccc(-n2nc(C(=O)NCc3ccc(F)cc3Cl)c3c4ccccc4n(C)c3c2=O)cc1 -5.88%, FC(F)(F)c1ccc2c(c1)ncc1c(-c3ccccc3)nn(-c3ccccc3)c12 0.531%, COc1ccc(NC(=O)c2ccc3c(c2)N(Cc2cccc(Cl)c2)C(=O)c2ccccc2S3(=O)=O)cc1Cl -1.33%, CCN(CC)C(=O)Cn1ncc2c([nH]c3ccc(C)cc32)c1=O 4.59%, CCOc1ccccc1CNC(=O)C1CCN(C(=O)N2CCOc3ccc(Cl)cc32)CC1 -8.33%, O=C1c2c(O)ccc(O)c2C(=O)c2c(NCCNCCO)ccc(NCCNCCO)c21 -11.1%, COc1ccc(OC)c(NC(=O)c2oc3c(c2C)-c2nn(Cc4ccc(Cl)cc4)cc2CC3)c1 -8.06%, CC(C)Oc1ccc(CNC(=O)c2ccc(CS(=O)Cc3ccccc3Cl)o2)cc1 (centres undefined) -6.02%, Cc1cn2c(=O)cc(COC(=O)c3cccc(NC(=O)COc4ccccc4)c3)nc2s1 -0.728%
